# The other results are listed elsewhere or left out.
# B1: MGL (Homo sapiens), Q8IUN9 (protein)
# chain: MTRTYENFQYLENKVKVQGFKNGPLPLQSLLQRLCSGPCHLLLSLGLGLLLLVIICVVGFQNSKFQRDLVTLRTDFSNFTSNTVAEIQALTSQGSSLEETIASLKAEVEGFKQERQAGVSELQEHTTQKAHLGHCPHCPSVCVPVHSEMLLRVQQLVQDLKKLTCQVATLNNNASTEGTCCPVNWVEHQDSCYWFSHSGMSWAEAEKYCQLKNAHLVVINSREEQNFVQKYLGSAYTWMGLSDPEGAWKWVDGTDYATGFQNWKPGQPDDWQGHGLGGGEDCAHFHPDGRWNDDVCQRPYHWVCEAGLGQTSQESH
# Columns and labels:
# Test in all cases: glycan array binding signal (z-score within array); higher = stronger binding
# Conditions in all cases: glycan notation: IUPAC condensed, linker removed
# [1] = target: Neu5Ac(a2-3)Gal(b1-4)GlcNAc(b1-3)Gal(b1-4)GlcNAc(b1-2)Man(a1-3)[Neu5Ac(a2-3)Gal(b1-4)GlcNAc(b1-3)Gal(b1-4)GlcNAc(b1-2)Man(a1-6)]Man(b1-4)GlcNAc(b1-4)GlcNAc
# How it was run: (§1)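 Negative Z-scores can be read as non-binding. The Z-score is calculated within each array and then averaged across arrays of one protein sequence at different concentrations or buffers and across linkers. Arrays, 3228 in all, were curated from the Consortium for Functional Glycomics database and kept only where the protein sequence was available.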
# [2] = target: Neu5Ac(a2-3)Gal(b1-4)GlcNAc(b1-3)Gal(b1-4)GlcNAc(b1-3)Gal(b1-4)GlcNAc
# How it was run: as §1
# [3] = target: Neu5Ac(a2-3)Gal(b1-4)GlcNAc(b1-3)Gal(b1-4)GlcNAc(b1-3)Gal(b1-4)GlcNAc(b1-2)Man(a1-3)[Neu5Ac(a2-3)Gal(b1-4)GlcNAc(b1-3)Gal(b1-4)GlcNAc(b1-3)Gal(b1-4)GlcNAc(b1-2)Man(a1-6)]GalNAc
# How it was run: as §1
# [4] = target: Neu5Ac(a2-3)Gal(b1-4)GlcNAc(b1-3)Gal(b1-4)GlcNAc(b1-3)GalNAc
# How it was run: as §1
# [5] = target: Neu5Ac(a2-3)Gal(b1-4)GlcNAc(b1-3)Gal(b1-4)GlcNAc(b1-3)[Neu5Ac(a2-3)Gal(b1-4)GlcNAc(b1-3)Gal(b1-4)GlcNAc(b1-6)]GalNAc
# How it was run: as §1
# [6] = target: Neu5Ac(a2-3)Gal(b1-4)GlcNAc(b1-3)Gal(b1-4)GlcNAc(b1-6)[Gal(b1-3)]GalNAc
# How it was run: as §1
# [7] = target: Neu5Ac(a2-3)Gal(b1-4)GlcNAc(b1-3)Gal(b1-4)[Fuc(a1-3)]GlcNAc
# How it was run: as §1
# [8] = target: Neu5Ac(a2-3)Gal(b1-4)GlcNAc(b1-3)GalNAc
# How it was run: as §1
# [9] = target: Neu5Ac(a2-3)Gal(b1-4)GlcNAc(b1-3)[Neu5Ac(a2-3)Gal(b1-4)GlcNAc(b1-6)]GalNAc
# How it was run: as §1
# [10] = target: Neu5Ac(a2-3)Gal(b1-4)GlcNAc(b1-6)GalNAc
# How it was run: as §1
# [11] = target: Neu5Ac(a2-3)Gal(b1-4)GlcNAc(b1-6)[Gal(b1-3)]GalNAc
# How it was run: as §1
# [12] = target: Neu5Ac(a2-3)Gal(b1-4)GlcNAc(b1-6)[Neu5Ac(a2-3)Gal(b1-3)]GalNAc
# How it was run: as §1
# [13] = target: Neu5Ac(a2-3)Gal(b1-4)GlcNAc6S
# How it was run: as §1
# [14] = target: Neu5Ac(a2-3)Gal(b1-4)[Fuc(a1-3)]GlcNAc
# How it was run: as §1
# [15] = target: Neu5Ac(a2-3)Gal(b1-4)[Fuc(a1-3)]GlcNAc(b1-2)Man
# How it was run: as §1
# [16] = target: Neu5Ac(a2-3)Gal(b1-4)[Fuc(a1-3)]GlcNAc(b1-3)Gal
# How it was run: as §1
# [17] = target: Neu5Ac(a2-3)Gal(b1-4)[Fuc(a1-3)]GlcNAc(b1-3)Gal(b1-4)GlcNAc
# How it was run: as §1
# [18] = target: Neu5Ac(a2-3)Gal(b1-4)[Fuc(a1-3)]GlcNAc(b1-3)Gal(b1-4)[Fuc(a1-3)]GlcNAc(b1-3)Gal(b1-4)[Fuc(a1-3)]GlcNAc
# How it was run: as §1
# [19] = target: Neu5Ac(a2-3)Gal(b1-4)[Fuc(a1-3)]GlcNAc(b1-3)GalNAc
# How it was run: as §1
# [20] = target: Neu5Ac(a2-3)Gal(b1-4)[Fuc(a1-3)]GlcNAc(b1-6)[Gal(b1-3)]GalNAc
# How it was run: as §1
# [21] = target: Neu5Ac(a2-3)Gal(b1-4)[Fuc(a1-3)]GlcNAc(b1-6)[Neu5Ac(a2-3)Gal(b1-3)]GalNAc
# How it was run: as §1
# [22] = target: Neu5Ac(a2-3)Gal(b1-4)[Fuc(a1-3)]GlcNAc6S
# How it was run: as §1
# [23] = target: Neu5Ac(a2-3)Gal6S(b1-4)GlcNAc
# How it was run: as §1
# [24] = target: Neu5Ac(a2-3)Gal6S(b1-4)[Fuc(a1-3)]GlcNAc
# How it was run: as §1
# Neu5Ac(a2-3)GalNAc = target: Neu5Ac(a2-3)GalNAc
# How it was run: as §1
# [25] = target: Neu5Ac(a2-3)GalNAc(b1-4)GlcNAc
# How it was run: as §1
# [26] = target: Neu5Ac(a2-3)[GalNAc(b1-4)]Gal(b1-4)Glc
# How it was run: as §1
# [27] = target: Neu5Ac(a2-3)[GalNAc(b1-4)]Gal(b1-4)GlcNAc
# How it was run: as §1
# [28] = target: Neu5Ac(a2-3)[GalNAc(b1-4)]Gal(b1-4)GlcNAc(b1-3)GalNAc
# How it was run: as §1
# [29] = target: Neu5Ac(a2-3)[Neu5Ac(a2-6)]GalNAc
# How it was run: as §1
# Neu5Ac(a2-6)Gal = target: Neu5Ac(a2-6)Gal
# How it was run: as §1
# [30] = target: Neu5Ac(a2-6)Gal(b1-3)GlcNAc(b1-3)[Gal(b1-4)GlcNAc(b1-6)]Gal(b1-4)Glc
# How it was run: as §1
# Neu5Ac(a2-6)Gal(b1-4)Glc = target: Neu5Ac(a2-6)Gal(b1-4)Glc
# How it was run: as §1
# [31] = target: Neu5Ac(a2-6)Gal(b1-4)GlcNAc
# How it was run: as §1
# [32] = target: Neu5Ac(a2-6)Gal(b1-4)GlcNAc(b1-2)Man
# How it was run: as §1
# [33] = target: Neu5Ac(a2-6)Gal(b1-4)GlcNAc(b1-2)Man(a1-3)Man(b1-4)GlcNAc(b1-4)GlcNAc
# How it was run: as §1
# [34] = target: Neu5Ac(a2-6)Gal(b1-4)GlcNAc(b1-2)Man(a1-3)[Gal(b1-4)GlcNAc(b1-2)Man(a1-6)]Man(b1-4)GlcNAc(b1-4)GlcNAc
# How it was run: as §1
# [35] = target: Neu5Ac(a2-6)Gal(b1-4)GlcNAc(b1-2)Man(a1-3)[GlcNAc(b1-2)Man(a1-6)]Man(b1-4)GlcNAc(b1-4)GlcNAc
# How it was run: as §1
binder,measurement,setting,value
B1,glycan array binding signal (z-score),[1],-0.695
same,glycan array binding signal (z-score),[2],-0.254
same,glycan array binding signal (z-score),[3],-0.22
same,glycan array binding signal (z-score),[4],-0.251
same,glycan array binding signal (z-score),[5],-0.277
same,glycan array binding signal (z-score),[6],-0.25
same,glycan array binding signal (z-score),[7],-0.251
same,glycan array binding signal (z-score),[8],-0.244
same,glycan array binding signal (z-score),[9],-0.527
same,glycan array binding signal (z-score),[10],3.25
same,glycan array binding signal (z-score),[11],-0.238
same,glycan array binding signal (z-score),[12],-0.245
same,glycan array binding signal (z-score),[13],-0.244
same,glycan array binding signal (z-score),[14],-0.243
same,glycan array binding signal (z-score),[15],-0.243
same,glycan array binding signal (z-score),[16],-0.244
same,glycan array binding signal (z-score),[17],-0.239
same,glycan array binding signal (z-score),[18],-0.238
same,glycan array binding signal (z-score),[19],-0.196
same,glycan array binding signal (z-score),[20],-0.235
same,glycan array binding signal (z-score),[21],-0.24
same,glycan array binding signal (z-score),[22],-0.244
same,glycan array binding signal (z-score),[23],-0.246
same,glycan array binding signal (z-score),[24],-0.254
same,glycan array binding signal (z-score),Neu5Ac(a2-3)GalNAc,-0.213
same,glycan array binding signal (z-score),[25],-0.244
same,glycan array binding signal (z-score),[26],1.81
same,glycan array binding signal (z-score),[27],0.79
same,glycan array binding signal (z-score),[28],0.1
same,glycan array binding signal (z-score),[29],-0.239
same,glycan array binding signal (z-score),Neu5Ac(a2-6)Gal,-0.236
same,glycan array binding signal (z-score),[30],-0.247
same,glycan array binding signal (z-score),Neu5Ac(a2-6)Gal(b1-4)Glc,-0.248
same,glycan array binding signal (z-score),[31],-0.247
same,glycan array binding signal (z-score),[32],-0.273
same,glycan array binding signal (z-score),[33],-0.199
same,glycan array binding signal (z-score),[34],-0.244
same,glycan array binding signal (z-score),[35],-0.24

# Reference: the supplement of paper PMC8728848
